Source: the RNAGym collection of RNA variant scans (doi:10.7554/elife.90254)
Read counts are not given, so values of variants with three or more changes are uncertain.

B1: LINE1-mini (parent)
chain: GGCAGAGCUCAACACAGCGUGGCAAAGUGGCUGUGGCUAGACUGCC

Variants of: B1
Assay: self-cleavage, relative activity (ratio to wild type); higher = more cleavage; in vitro, sequencing; the parent is a self-cleaving ribozyme

| Variant | self-cleavage |
| --- | --- |
| GGGAGUGCUCAACACAGCGUGGCAAAGUGGCUGUGGCCAGCCUGCC | 0.05 |
| GGAAGAGCUCAACACAGCGUUUCAAAGUGGCUGUGGCUAGACUGCC | 1.91 |
| GGAAGAGCUCAACACAGCGUGGCAAAGGGGCUGUGGCUAGACCGCC | 0.08 |
| GGGGGAGCUCAACACAGCGUGCCAAAGUGGCUGUGGCUAGACUGCC | 0.14 |
| GGAAGAGCUCAACACAGCGUGGCAAAGUCGCUGUGGCAAGACUGCC | 0.36 |
| GGGCGAGCUCAACACAGCGUGGCAACGAGGCUGUGGCUAGACUGCC | 0.02 |
| GGGAGUGCUCAACACAACGUGGCAAAGUGGCUGUGGCUAGACUGCC | 0.06 |
| GGGAGUGCUUAACACAGCAUGGCAAAGUGGCUGUGGCUAUACUGCC | 0.02 |
| GGAAGAGCUCAACACAGCGGGGCAAAGUGGAGGUGGCUAGGCUGAC | 0.04 |
| GGGUGAACUCAACACAGCGUUGGAAAGUGUCUGUGGCUAGACUGCU | 0.04 |
| GGGUGAGCUCAACACAGCGAGGCAAAGUCGGUGUGGCUAGCCUGCC | 0.01 |
| GGAAGAGCUCAACACAGCGUGGCAAAGUGGCUGUGCCUAAAAUGCC | 0.31 |
| GGAAGAGCUCAACACAGCGUGGCAAAGUGUCUCUGACUAGACUGGC | 0.01 |
| GGGAGGGCUCAACACAUCGUGGCAAAGUGGCUGUGGCUAGACUGCC | 0.03 |
| GGAAGAGCUCAACACAGCGUUGCAAAGUUGCUGUGGCUAGACUACC | 0.66 |
| GGGAGGGCUCAACACAGCGUGGCAAAGUGGCUGUGGCAAGACUGCC | 0.08 |
| GGAAGAGCCCAACACAGCGUGGCAAAGUGGGUGUGGCUAGACUGCC | 0.05 |
| GGAAGAGCUCAACACAGCGUGGCAAAGUGGCUGUGGCUAUAGUGCC | 0.26 |
| GGGAGGGCUCAACACAGCGUGGCAAAGUGGCAGUGGCUAGACUGCU | 0.11 |
| GGAAGAGCCCAACGCAGCGUGGCAAAAUGGCUGUGGCUAGACUGCC | 0.06 |
| GGAAGAGCUCAACACAGCCUGGCAAAGUGGAUGUGGCUAGACUGCC | 0.27 |
| GGAAGAGCUCAACACAGCGUGGCAAAGUGGCUGUGACUAGACUGAC | 0.08 |
| GGAAGAGCUCAACACAGCGUCGCAAAGUGGGUGUGAUUGGAGUGCC | 0.03 |

| Variant | self-cleavage |
| --- | --- |
| GGGUGAGCUCAACACAGCGUGCCAAAGUGGCUGUGGCGAGACUGCC | 0.01 |
| GGAAGAGCUCAACACAGCGUGGCAAAGUGGCAGUCGCUAGCCUGCC | 0.12 |
| GGAAGAGCUCAACACAGCGUGCCAAAGUGGCUGUGGCUCGACUUCC | 0.04 |
| GGAAGAGCUCAACACAGCGUGGCAAAGUGGCUGCGGCUUGACUGCC | 0.06 |
| GGAAGAGCUCAACACAGCCUGGCACAGUGGCUGUGGCUAGACUGCC | 0.08 |
| GGAAGAGCUCAACACAGCGUGGCAAAGUAGCUGUGGCUAGAUUGCC | 0.34 |
| GGGGGAGCUCAACUCAGCGUGGCAAAGUGGCUGUGGCUCGACUGCC | 0.02 |
| GGGAGCGCUCAACACAGCCUGGCAAAGUGGCUGUGGCUAGACUGCC | 0.17 |
| GGAAGAGCUCAACACAGCGUGGCAAAGCGCCUGUGGCUAGACUGCC | 0.79 |
| GGAAGAGCACAACACAGCGUGGCAAAGUGGCUGUGCCUAGACUGCC | 0.11 |
| GGGUGUGCUCAACACAGCGUGCCCAAGUGGCUGUGGUUAGACUGCC | 0.02 |
| GGAAGAGCUCAACACAGCUUGGCUAAGUGGCUGUGACUAGAUUGCC | 0.56 |
| GGAAGAGCGUAAGACAGCGUGGCAAAGUUGCUGUGGCUAGCCUGCC | 0.03 |
| GGAAGAGCUCAACACAGCGUGGCAAAGUGGCUGUGGCGAUACUGCC | 0.03 |
| GGAAGAGCUCAACACAGCGUAGCAAAGUCGCUGUGGCUAGAUUGCC | 0.14 |
| GGAAGAGCGCAACCCAGCGUGGCAAAGUGGCUGUGGCUAGACUGCC | 0.41 |
| GGGAGAGCUCUACACAGCGAGGCAAAGUGGCUGUGGCUAGACUGCC | 0.03 |
| GGAAGAGCCCAACACAGCGUGGCUAAGUGGCUGUGGCUAGACUGCC | 0.05 |
| GGGAGGGCUCAACACAGCGUGGGAAAGUGGCUGUGGAUAGACUGCC | 0.2 |
| GGAAGAGCUCAACACAGCGUGGCAAAGGGCCUGUGCCUAGACUGCC | 0.05 |
| GGAAGAGCGCAACACAGCGUGGCAAAGUGGCUGUGGCUAGACUGGC | 0.94 |
| GGGAGGGCUCAACACCGCCUGGCAAAGUGGCUGUGUCUAGACUGCC | 0.02 |
| GGAAGAGCCCAUCACGGCGUGGCAAAGUGGCUGUGGCUAGACUGCC | 0.04 |

| Variant | self-cleavage |
| --- | --- |
| GGGCGAGCUCAACGCAGCGUGGCAAAGUGGCUGUGUCUAAAGUGCC | 2.37 |
| GGAAGAGCUCAACACAGCGAGGCAAAGUGGCUGUGCAUAGACUGCG | 0.28 |
| GGGCGAGCGCAACAAAGCGUGGCAAAGUGGCUGUGGCUAGACUGCC | 0.44 |
| GGAAGAGCUCAACACAGCGUGGCAAAGUGGCUGUGCCUGGACUGCC | 0.23 |
| GGGAGAGCUCGACACAGCGUGGCAGAGUGGGUGUGGCUAGACUGCC | 0.01 |
| GGAAGAGCUCAACACAGCAUGGCAAUGUGGCUGUGGCUAGACUGCC | 1.53 |
| GGGCGAGCUCAAGACUGUGUGGCAAAGUGGCUAUGGCUAGGCUGCG | 0.22 |
| GGAAGAGCUCAACACAGCGUGGCAAAUUGGCUGUGGCUAGACUGGC | 0.18 |
| GGGAGUGGUCAACACUGCGUGACAAAGUGUCUGUGGCUAGACUGCC | 0.01 |
| GGGUGAGCUCAACACAGCGUGGCAAAGUGGCUGUGGCUAGUUUUCC | 0.11 |
| GGGUGAUCUCAACACAGUGUGGCAAAGUGGCUGUGGCUAGACUGCC | 0.06 |
| GGGUGAGCUCAACACAGCGUAGCAAACUGGCUGUGGCUAGACUGCC | 0.25 |
| GGAAGAGCUCAACACAGCGUGGCAAAGUGGCCGUGGCUAGACUGCG | 0.13 |
| GGAAGAGCACAAGACAGCGUGGCGAAGUGGCUGUGGCUAGACUGCC | 0.01 |
| GGGAGCGCUCAACACGGCGUGGCAAGGUGGCUGUGGCUAGACUGCC | 0.04 |
| GGAAGAGCCCAACACAGCGUGGCAAAGUGGCUGUGGUUAGACUGCC | 0.04 |
| GGAAGAGCUCAACACAGCAUGGCAAAGUGGCUGUGGCUAGAUUGCC | 0.11 |
| GGAAGAGCUCAACACAGCGUGGCAAAGUGGCUCUGGCUAUACUGCC | 0.06 |
| GGAAGAGCUCAACACAGCGUGGCAAAGUAGCUGUGUUUAGACUGCC | 0.18 |
| GGAAGAGCACAACCCAGCGUGGCAAAGUUUCUGUGGCUACACUGCC | 0.03 |
| GGGUGUGCUGAACCCAGCGUGACAAAGUGGCUGUUGCUAGACUGCA | 0.03 |
| GGAAGAGCUCAACACAGCGCGGCAAAGUGGUUGUGGCUAGACUGCC | 0.13 |
| GGAAGAGCUCAACACAGCGUGGCAAAGUGUCUGUGGCUAGGGUGCC | 0.09 |

| Variant | self-cleavage |
| --- | --- |
| GGAAGAGCUCAACACAGCGUGUCAAGGUGGCUGUGGCCAGACUGCC | 0.44 |
| GGAAGAGCUCAACACAGCGUGACAAAGUAGCUGUGGCAAGACUGCC | 0.06 |
| GGGAGUGCUCAACAUAGCGUGGCACAGUGGCUUUGGCGAGACUGCC | 0.11 |
| GGAAGAGCACAACACAGCGUCGCAAAGUGGCUGUAGCUAGACUGCC | 0.52 |
| GGGCGAGCUCAACACAGCGGGCCAAAGUGGCUGUGGCUAGACUGCA | 0.05 |
| GGAAGAGCUCAACACAGCGUGUCAAACUGGCUGUAGCUAGACUACC | 0.27 |
| GGAAGAGCGCAACAUAGCGUGUCAUAGUGGCUGUGGCUAGACAGCC | 0.08 |
| GGAAGAGCUCAACACAGCGUGGCAAAGUGGCUGCUGCUAGACUGCC | 0.76 |
| GGGAGAGCUCGAGACCGCGAGGCAAAGUUGCUGUGGCUAGACUGCC | 0.01 |
| GGAAGAGCUCAACACAGCAUGGCAAAGUGGGUGUGCCCAGACUGCC | 0.06 |
| GGGUGAGCACAACACAGCGUGGCAAAGUGGCUUUGGCUAGACUGCC | 0.18 |
| GGGAGCGCUCAACACAGCGUGGCAAAGUGGCUGGCGUUAGAUUGCU | 0.12 |
| GGGCGAGCUCAACACAGCGUGGCAAAGUGGUUGUGGCUAGACUGCC | 0.08 |
| GGGCGAGCUCAACACAGCGUGGCAAAGUGGAUGUGGCUAGACUGCC | 0.61 |
| GGAAGAGCAUAACACAGCGUGGCAAAGUGGCUGUGGCUAGACCGGC | 0.11 |
| GGGAGGGCUCAGCACAGCGUGGCAAAGUGGCUGUGGCUAGACUGCC | 0.01 |
| GGAAGAGCUCAACACAGCGUGGCAAAGCGGUUGUGGCUAGACUGCC | 0.12 |
| GGAAGAGCUCAACACAGCAUGGCAAAGUGGCUGUGUCUAGACUGCC | 0.35 |
| GGAAGAGCUCAACACAGCGUGGCAAAGUAGCUGUGGUUAGACUGCC | 0.03 |
| GGGGGAGCCCAACACAGAGUGGCAAAGUGGCUGUGGCUAGAAUGCC | 0.01 |
| GGGGGAGCUCAAGACAGCGUGGCAAAUUGGCUGUGGCUAGAGUGCC | 0.11 |
| GGGAGAGCUCUACACAGCGUUGCAAAGUCGCUGUGGCUAGACUGCC | 0.02 |
| GGGAGAGCUCCACACAGCGUGGCAAAGUGGCCGUGGCUAGACUGCC | 0.04 |

| Variant | self-cleavage |
| --- | --- |
| GGGAGCGCUCAACACAGCGUGACAAAGUGGCUGUGCCUAGACUGCC | 0.29 |
| GGGAGAGCUCUGCACAGCGUGGCGAAGUGGCUGUGGGUAGACUGCC | 0.01 |
| GGAAGAGCUCAACACAUCGUGGCAAAGUGGCUGUGCCUAGACUGCC | 0.39 |
| GGGGGAGCUCAACACAGCGUGGCAAAGUUGCUGUGGCUAGACUGCC | 0.13 |
| GGAAGAGCUCAACACAGCGUGGCAAAGUGGCUGUGUCAAGACUGCC | 0.05 |
| GGAAGAGCCCAACACAGCGUGGCAUACUGGUUGUGGCUAGACUGCC | 0.01 |
| GGGGGUGCUCAACACAGAGUGGCAAAGUGACUGUGGCUAGACUGCC | 0.24 |
| GGAAGAGCUCAACACAGCGUGGCAAAGUGGCUGUGACUAGACUGCG | 0.38 |
| GGAAGAGCUCAACACAGCGUAGCAAAGUGGGUGUGGCUAGACUGCG | 0.06 |
| GGAAGAGCUCAACACAGCAUGGGAAAGUGGCUGUGGCUAGACUGCC | 0.09 |
| GGAAGAGCUCAACACAGCGUGCCAAAGUGGCUGUGGCUAGACUCCC | 0.23 |
| GGAAGAGCUCAACACAGCACGGCAAAGUGGCUGAGGCUAGACUGCC | 0.27 |
| GGAAGAGCACAACACAGCGUGGCGAAGUGGCUGUGUCUAGACUGCC | 0.61 |
| GGAAGAGCUCAACACAGCGUGGCAAAGCGGCUGUGGCUAGACUGCA | 0.1 |
| GGAAGAGCUCAACACAGCGAGGCAAAGUGGCUGUGGCUAGACUGUC | 0.42 |
| GGAAGAGCUCAACACAGCUCGGCAACGUGGCUGGGGCUAUACUGCC | 0.01 |
| GGGCAAGCACAACACAGCGUGGCAAAGUGGCUGUGGCUAGACUGCC | 0.18 |
| GGGAGGGCUCAACACAGAGUGGCAAAGUGGCUGUGGCUAGACUGCC | 0.12 |
| GGGGGAGCUCAACACAGCGUGGCAAAGUGACUGUGGCUAGACUACC | 0.04 |
| GGAAGAGCUCAACACAGCGUGGCAAAGCGGAUGUGGCUACACUGCC | 0.07 |
